Test results: the supplement of paper PMC8728848
Some of the results follow.

Columns and labels:
Experiment in all cases: glycan array binding signal (z-score within array); higher = stronger binding
Details in all cases: glycan notation: IUPAC condensed, linker removed
[1] = target: Fuc(a1-2)[GalNAc(b1-3)]Gal
Summary of the method: (§1)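 Negative Z-scores can be read as non-binding. The Z-score is calculated within each array and then averaged across arrays of one protein sequence at different concentrations or buffers and across linkers. Arrays, 3228 in all, were curated from the Consortium for Functional Glycomics database and kept only where the protein sequence was available.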

Fuc(a1-3)GlcNAc = target: Fuc(a1-3)GlcNAc
Summary of the method: as §1

[2] = target: Fuc(a1-3)[Gal(b1-4)]Glc6S
Summary of the method: as §1

[3] = target: Fuc(a1-3)[Gal(b1-4)]GlcNAc
Summary of the method: as §1

[4] = target: Fuc(a1-3)[Gal(b1-4)]GlcNAc(b1-2)Man
Summary of the method: as §1

[5] = target: Fuc(a1-3)[Gal(b1-4)]GlcNAc(b1-2)Man(a1-3)[Fuc(a1-3)[Gal(b1-4)]GlcNAc(b1-2)Man(a1-6)]Man(b1-4)GlcNAc(b1-4)GlcNAc
Summary of the method: as §1

[6] = target: Fuc(a1-3)[Gal(b1-4)]GlcNAc(b1-2)Man(a1-3)[Fuc(a1-3)[Gal(b1-4)]GlcNAc(b1-2)Man(a1-6)]Man(b1-4)GlcNAc(b1-4)[Fuc(a1-6)]GlcNAc
Summary of the method: as §1

[7] = target: Fuc(a1-3)[Gal(b1-4)]GlcNAc(b1-3)Gal(b1-3)[Fuc(a1-4)]GlcNAc
Summary of the method: as §1

[8] = target: Fuc(a1-3)[Gal(b1-4)]GlcNAc(b1-3)Gal(b1-4)[Fuc(a1-3)]GlcNAc
Summary of the method: as §1

[9] = target: Fuc(a1-3)[Gal(b1-4)]GlcNAc(b1-3)Gal(b1-4)[Fuc(a1-3)]GlcNAc(b1-3)Gal(b1-4)[Fuc(a1-3)]GlcNAc
Summary of the method: as §1

[10] = target: Fuc(a1-3)[Gal(b1-4)]GlcNAc(b1-3)GalNAc
Summary of the method: as §1

[11] = target: Fuc(a1-3)[Gal(b1-4)]GlcNAc(b1-6)GalNAc
Summary of the method: as §1

[12] = target: Fuc(a1-3)[Gal(b1-4)]GlcNAc(b1-6)[Gal(b1-3)GlcNAc(b1-3)]Gal(b1-4)Glc
Summary of the method: as §1

[13] = target: Fuc(a1-3)[Gal(b1-4)]GlcNAc6S
Summary of the method: as §1

[14] = target: Fuc(a1-3)[Gal3S(b1-4)]Glc
Summary of the method: as §1

[15] = target: Fuc(a1-3)[Gal3S(b1-4)]GlcNAc
Summary of the method: as §1

[16] = target: Fuc(a1-3)[Gal3S(b1-4)]GlcNAc6S
Summary of the method: as §1

[17] = target: Fuc(a1-3)[GalNAc(b1-4)]GlcNAc
Summary of the method: as §1

[18] = target: Fuc(a1-3)[GalNAc(b1-4)]GlcNAc6S
Summary of the method: as §1

Fuc(a1-4)GlcNAc = target: Fuc(a1-4)GlcNAc
Summary of the method: as §1

Fuc(b1-3)GlcNAc = target: Fuc(b1-3)GlcNAc
Summary of the method: as §1

Gal(a1-2)Gal = target: Gal(a1-2)Gal
Summary of the method: as §1

Gal(a1-3)Gal = target: Gal(a1-3)Gal
Summary of the method: as §1

Gal(a1-3)Gal(b1-3)GlcNAc = target: Gal(a1-3)Gal(b1-3)GlcNAc
Summary of the method: as §1

[19] = target: Gal(a1-3)Gal(b1-3)GlcNAc(b1-2)Man
Summary of the method: as §1

[20] = target: Gal(a1-3)Gal(b1-3)GlcNAc(b1-2)Man(a1-3)[Gal(a1-3)Gal(b1-3)GlcNAc(b1-2)Man(a1-6)]Man(b1-4)GlcNAc(b1-4)GlcNAc
Summary of the method: as §1

[21] = target: Gal(a1-3)Gal(b1-3)GlcNAc(b1-3)GalNAc
Summary of the method: as §1

[22] = target: Gal(a1-3)Gal(b1-3)GlcNAc(b1-6)GalNAc
Summary of the method: as §1

[23] = target: Gal(a1-3)Gal(b1-3)[Fuc(a1-4)]GlcNAc(b1-2)Man(a1-3)[Gal(a1-3)Gal(b1-3)[Fuc(a1-4)]GlcNAc(b1-2)Man(a1-6)]Man(b1-4)GlcNAc(b1-4)GlcNAc
Summary of the method: as §1

Gal(a1-3)Gal(b1-4)Glc = target: Gal(a1-3)Gal(b1-4)Glc
Summary of the method: as §1

Gal(a1-3)Gal(b1-4)GlcNAc = target: Gal(a1-3)Gal(b1-4)GlcNAc
Summary of the method: as §1

[24] = target: Gal(a1-3)Gal(b1-4)GlcNAc(b1-2)Man
Summary of the method: as §1

[25] = target: Gal(a1-3)Gal(b1-4)GlcNAc(b1-2)Man(a1-3)[Gal(a1-3)Gal(b1-4)GlcNAc(b1-2)Man(a1-6)]Man(b1-4)GlcNAc(b1-4)GlcNAc
Summary of the method: as §1

[26] = target: Gal(a1-3)Gal(b1-4)GlcNAc(b1-3)GalNAc
Summary of the method: as §1

[27] = target: Gal(a1-3)Gal(b1-4)GlcNAc(b1-6)GalNAc
Summary of the method: as §1

[28] = target: Gal(a1-3)Gal(b1-4)[Fuc(a1-3)]GlcNAc
Summary of the method: as §1

[29] = target: Gal(a1-3)Gal(b1-4)[Fuc(a1-3)]GlcNAc(b1-2)Man(a1-3)[Gal(a1-3)Gal(b1-4)[Fuc(a1-3)]GlcNAc(b1-2)Man(a1-6)]Man(b1-4)GlcNAc(b1-4)GlcNAc
Summary of the method: as §1

Gal(a1-3)GalNAc = target: Gal(a1-3)GalNAc
Summary of the method: as §1

[30] = target: Gal(a1-3)[Gal(a1-4)]Gal(b1-4)GlcNAc
Summary of the method: as §1

[31] = target: Gal(a1-4)Gal(b1-3)GlcNAc(b1-2)Man(a1-3)[Gal(a1-4)Gal(b1-3)GlcNAc(b1-2)Man(a1-6)]Man(b1-4)GlcNAc(b1-4)GlcNAc
Summary of the method: as §1

Gal(a1-4)Gal(b1-4)Glc = target: Gal(a1-4)Gal(b1-4)Glc
Summary of the method: as §1

Gal(a1-4)Gal(b1-4)GlcNAc = target: Gal(a1-4)Gal(b1-4)GlcNAc
Summary of the method: as §1

[32] = target: Gal(a1-4)Gal(b1-4)GlcNAc(b1-2)Man(a1-3)[Gal(a1-4)Gal(b1-4)GlcNAc(b1-2)Man(a1-6)]Man(b1-4)GlcNAc(b1-4)GlcNAc
Summary of the method: as §1

[33] = target: Gal(a1-4)Gal(b1-4)GlcNAc(b1-3)Gal(b1-4)Glc
Summary of the method: as §1

Gal(a1-4)GlcNAc = target: Gal(a1-4)GlcNAc
Summary of the method: as §1

B1: EPL1 (Trichoderma atroviride), A0PCX2 (protein)
chain: MQLSNLFKLALFTAAVSADTVSYDTGYDDASRSLTVVSCSDGTNGLITRYHWQTQGQIPRFPYIGGAQAVAGWNSPNCGTCWKLTYSGKTIYVLAIDHTAAGFNIGLDAMNALTNGNAVALGRVSATASQVAVSNCGL
[1]
  glycan array binding signal (z-score): -0.54
Fuc(a1-3)GlcNAc
  glycan array binding signal (z-score): -0.052
[2]
  glycan array binding signal (z-score): -0.166
[3]
  glycan array binding signal (z-score): -0.397
[4]
  glycan array binding signal (z-score): 0.185
[5]
  glycan array binding signal (z-score): -0.258
[6]
  glycan array binding signal (z-score): 0.451
[7]
  glycan array binding signal (z-score): -0.027
[8]
  glycan array binding signal (z-score): -0.051
[9]
  glycan array binding signal (z-score): -0.19
[10]
  glycan array binding signal (z-score): -0.022
[11]
  glycan array binding signal (z-score): -0.122
[12]
  glycan array binding signal (z-score): 0.15
[13]
  glycan array binding signal (z-score): 0.291
[14]
  glycan array binding signal (z-score): 0.585
[15]
  glycan array binding signal (z-score): 0.108
[16]
  glycan array binding signal (z-score): 0.255
[17]
  glycan array binding signal (z-score): 0.203
[18]
  glycan array binding signal (z-score): -0.245
Fuc(a1-4)GlcNAc
  glycan array binding signal (z-score): 3.1
Fuc(b1-3)GlcNAc
  glycan array binding signal (z-score): -0.156
Gal(a1-2)Gal
  glycan array binding signal (z-score): 0.255
Gal(a1-3)Gal
  glycan array binding signal (z-score): -0.422
Gal(a1-3)Gal(b1-3)GlcNAc
  glycan array binding signal (z-score): -0.491
[19]
  glycan array binding signal (z-score): -0.149
[20]
  glycan array binding signal (z-score): -0.058
[21]
  glycan array binding signal (z-score): 0.164
[22]
  glycan array binding signal (z-score): -0.018
[23]
  glycan array binding signal (z-score): -0.19
Gal(a1-3)Gal(b1-4)Glc
  glycan array binding signal (z-score): -0.454
Gal(a1-3)Gal(b1-4)GlcNAc
  glycan array binding signal (z-score): -0.381
[24]
  glycan array binding signal (z-score): -0.522
[25]
  glycan array binding signal (z-score): 0.847
[26]
  glycan array binding signal (z-score): 0.101
[27]
  glycan array binding signal (z-score): 0.045
[28]
  glycan array binding signal (z-score): -0.262
[29]
  glycan array binding signal (z-score): 0.929
Gal(a1-3)GalNAc
  glycan array binding signal (z-score): -0.034
[30]
  glycan array binding signal (z-score): 0.643
[31]
  glycan array binding signal (z-score): -0.259
Gal(a1-4)Gal(b1-4)Glc
  glycan array binding signal (z-score): 0.212
Gal(a1-4)Gal(b1-4)GlcNAc
  glycan array binding signal (z-score): 0.34
[32]
  glycan array binding signal (z-score): -0.178
[33]
  glycan array binding signal (z-score): -0.378
Gal(a1-4)GlcNAc
  glycan array binding signal (z-score): -0.267
